Test results published in US8067379B2, “Sulfur compounds as inhibitors of hepatitis C virus NS3 serine protease” (Schering Corporation, priority 2004, dated 2011).

Each compound was assayed against Recombinant heterodimeric HCV NS3/NS4A protease (strain 1a) (Hepatitis C virus genotype 1a, UniProt P27958) (assay: Spectrophotometric assay for HCV serine protease inhibitory activity (chromogenic ester substrates)). Settings: Table 3, sulfide compounds; HCV serine protease; read-out: Ki* range.
Assay type: biochemical
Text: Assay for HCV Protease Inhibitory Activity:
Spectrophotometric Assay: Spectrophotometric assay for the HCV serine protease can be performed on the inventive compounds by following the procedure described by R. Zhang et al, Analytical Biochemistry, 270 (1999) 268-275, the disclosure of which is incorporated herein by reference. The assay based on the proteolysis of chromogenic ester substrates is suitable for the continuous monitoring of HCV NS3 protease activity. The substrates are derived from the P side of the NS5A-NS5B junction sequence (Ac-DTEDWX(Nva), where X=A or P) whose C-terminal carboxyl groups are esterified with one of four different chromophoric alcohols (3- or 4-nitrophenol, 7-hydroxy-4-methyl-coumarin, or 4-phenylazophenol).
Protein concentrations are determined by the Biorad dye method using recombinant HCV protease standards previously quantified by amino acid analysis. Prior to assay initiation, the enzyme storage buffer (50 mM sodium phosphate pH 8.0, 300 mM NaCl, 10% glycerol, 0.05% lauryl maltoside and 10 mM DTT) is exchanged for the assay buffer (25 mM MOPS pH 6.5, 300 mM NaCl, 10% glycerol, 0.05% lauryl maltoside, 5 μM EDTA and 5 μM DTT) utilizing a Biorad Bio-Spin P-6 prepacked column.
Protease Assay: HCV protease assays are performed at 30° C. using a 200 μl reaction mix in a 96-well microtiter plate. Assay buffer conditions (25 mM MOPS pH 6.5, 300 mM NaCl, 10% glycerol, 0.05% lauryl maltoside, 5 μM EDTA and 5 μM DTT) are optimized for the NS3/NS4A heterodimer (D. L. Sali et al, ibid.)). […] Fifty μls of prewarmed protease (12 nM, 30° C.) in assay buffer, is then used to initiate the reaction (final volume 200 μl). The plates are monitored over the length of the assay (60 minutes) for change in absorbance at the appropriate wavelength (340 nm for 3-Np and HMC, 370 nm for PAP, and 400 nm for 4-Np) using a Spectromax Plus microtiter plate reader equipped with a monochrometer (acceptable results can be obtained with plate readers that utilize cutoff filters). Proteolytic cleavage of the ester linkage between the Nva and the chromophore is monitored at the appropriate wavelength against a no enzyme blank as a control for non-enzymatic hydrolysis. The evaluation of substrate kinetic parameters is performed over a 30-fold substrate concentration range (˜6-200 μM). Initial velocities are determined using linear regression and kinetic constants are obtained by fitting the data to the Michaelis-Menten equation using non-linear regression analysis (Mac Curve Fit 1.1, K. Raner). Turnover numbers (kcat) are calculated assuming the enzyme is fully active.
Evaluation of Inhibitors and Inactivators: The inhibition constants (Ki) for the competitive inhibitors Ac-D-(D-Gla)-L-l-(Cha)-C-OH (27), Ac-DTEDWA(Nva)-OH and Ac-DTEDVVP(Nva)-OH are determined experimentally at fixed concentrations of enzyme and substrate by plotting vo/vi vs. inhibitor concentration ([l]o) according to the rearranged Michaelis-Menten equation for competitive inhibition kinetics: vo/vi=1+[l]o/(Ki (1+[S]o/Km)), where vo is the uninhibited initial velocity, vi is the initial velocity in the presence of inhibitor at any given inhibitor concentration ([l]o) and [S]o is the substrate concentration used.

| SMILES | Ki [nM] |
| --- | --- |
| CC(C)(C)[C@H](NC(=O)NC1(CSc2ccccn2)CCCCC1)C(=O)N1C[C@H]2[C@@H]([C@H]1C(=O)NC(CC1CCC1)C(=O)C(N)=O)C2(C)C (stereo partly drawn) [Compound 127] | < 75 |
| C=CCNC(=O)C(=O)C(CCC)NC(=O)[C@@H]1[C@@H]2[C@H](CN1C(=O)[C@@H](NC(=O)NC1(CSc3ccccn3)CCCCC1)C(C)(C)C)C2(C)C (stereo partly drawn) [Compound 128] | 75 to 250 |
| C=CCNC(=O)C(=O)C(CCC(F)(F)F)NC(=O)[C@@H]1[C@@H]2[C@H](CN1C(=O)[C@@H](NC(=O)NC1(CSc3ccccn3)CCCCC1)C(C)(C)C)C2(C)C (stereo partly drawn) [Compound 129] | > 250 |
| CC(C)(C)SCCC1(NC(=O)N[C@H](C(=O)N2C[C@H]3[C@@H]([C@H]2C(=O)NC(CC2CC2)C(=O)C(N)=O)C3(C)C)C(C)(C)C)CCCCC1 (stereo partly drawn) [Compound 130] | 75 to 250 |
| C#CCCC(NC(=O)[C@@H]1[C@@H]2[C@H](CN1C(=O)[C@@H](NC(=O)NC1(CCSC(C)(C)C)CCCCC1)C(C)(C)C)C2(C)C)C(=O)C(=O)NCC=C (stereo partly drawn) [Compound 131] | 75 to 250 |

Same assay, conditions: Table 3, sulfone compounds; HCV serine protease; read-out: Ki* range

| SMILES | Ki [nM] |
| --- | --- |
| CC(C)(C)[C@H](NC(=O)NC1(CS(=O)(=O)c2ccccc2)CCCCC1)C(=O)N1C[C@H]2[C@@H]([C@H]1C(=O)NC(CC1CC1)C(=O)C(N)=O)C2(C)C (stereo partly drawn) [Compound 142] | < 75 |
| CC(C)[C@@H](CS(=O)(=O)c1ccccc1)NC(=O)N[C@H](C(=O)N1C[C@H]2[C@@H]([C@H]1C(=O)NC(CC1CCC1)C(=O)C(N)=O)C2(C)C)C(C)(C)C (stereo partly drawn) [Compound 143] | < 75 |
| CC(C)[C@@H](CS(=O)(=O)c1ccccc1)NC(=O)N[C@H](C(=O)N1C[C@H]2[C@@H]([C@H]1C(=O)NC(CC1CC1)C(=O)C(N)=O)C2(C)C)C(C)(C)C (stereo partly drawn) [Compound 144] | < 75 |
| CC(C)[C@@H](CS(=O)(=O)Cc1ccccc1)NC(=O)N[C@H](C(=O)N1C[C@H]2[C@@H]([C@H]1C(=O)NC(CC1CCC1)C(=O)C(N)=O)C2(C)C)C(C)(C)C (stereo partly drawn) [Compound 145] | < 75 |
| CC(C)[C@@H](CS(=O)(=O)Cc1ccccc1)NC(=O)N[C@H](C(=O)N1C[C@H]2[C@@H]([C@H]1C(=O)NC(CC1CC1)C(=O)C(N)=O)C2(C)C)C(C)(C)C (stereo partly drawn) [Compound 146] | < 75 |
| C=CCNC(=O)C(=O)C(CCCC)NC(=O)[C@@H]1[C@@H]2[C@H](CN1C(=O)[C@@H](NC(=O)N[C@H](CS(=O)(=O)C(C)(C)C)C(C)C)C(C)(C)C)C2(C)C (stereo partly drawn) [Compound 147] | 75 to 250 |
| C=CCNC(=O)C(=O)C(CCCC)NC(=O)[C@@H]1[C@@H]2[C@H](CN1C(=O)[C@@H](NC(=O)N[C@H](CS(=O)(=O)c1ccccc1)C(C)C)C(C)(C)C)C2(C)C (stereo partly drawn) [Compound 148] | 75 to 250 |
| C=CCNC(=O)C(=O)C(CCCC)NC(=O)[C@@H]1[C@@H]2[C@H](CN1C(=O)[C@@H](NC(=O)N[C@H](CS(=O)(=O)Cc1ccccc1)C(C)C)C(C)(C)C)C2(C)C (stereo partly drawn) [Compound 149] | 75 to 250 |
| CC(C)[C@@H](CS(=O)(=O)C(C)(C)C)NC(=O)N[C@H](C(=O)N1C[C@H]2[C@@H]([C@H]1C(=O)NC(CC1CC1)C(=O)C(N)=O)C2(C)C)C(C)(C)C (stereo partly drawn) [Compound 150] | < 75 |
| CC(C)(C)[C@H](NC(=O)N[C@H](CS(=O)(=O)Cc1ccccc1)c1ccccc1)C(=O)N1C[C@H]2[C@@H]([C@H]1C(=O)NC(CC1CCC1)C(=O)C(N)=O)C2(C)C (stereo partly drawn) [Compound 151] | 75 to 250 |
| CC(C)(C)[C@H](NC(=O)N[C@H](CS(=O)(=O)Cc1ccccc1)c1ccccc1)C(=O)N1C[C@H]2[C@@H]([C@H]1C(=O)NC(CC1CC1)C(=O)C(N)=O)C2(C)C (stereo partly drawn) [Compound 152] | 75 to 250 |
| C=CCNC(=O)C(=O)C(CCCC)NC(=O)[C@@H]1[C@@H]2[C@H](CN1C(=O)[C@@H](NC(=O)N[C@H](CS(=O)(=O)Cc1ccccc1)c1ccccc1)C(C)(C)C)C2(C)C (stereo partly drawn) [Compound 153] | > 250 |
| C#CCCC(NC(=O)[C@@H]1[C@@H]2[C@H](CN1C(=O)[C@@H](NC(=O)NC1(CS(=O)(=O)c3ccccc3)CCCCC1)C(C)(C)C)C2(C)C)C(=O)C(N)=O (stereo partly drawn) [Compound 154] | < 75 |
| CC(C)[C@@H](CS(=O)(=O)C(C)(C)C)NC(=O)N[C@H](C(=O)N1C[C@H]2[C@@H]([C@H]1C(=O)NC(CC1CC1)C(=O)C(N)=O)C2(C)C)C1CCCCC1 (stereo partly drawn) [Compound 155] | < 75 |
| CC(C)[C@@H](CS(=O)(=O)C(C)(C)C)NC(=O)N[C@H](C(=O)N1C[C@H]2[C@@H]([C@H]1C(=O)NC(CC1CCC1)C(=O)C(N)=O)C2(C)C)C1CCCCC1 (stereo partly drawn) [Compound 156] | < 75 |
| C=CCNC(=O)C(=O)C(CCCC)NC(=O)[C@@H]1[C@@H]2[C@H](CN1C(=O)[C@@H](NC(=O)N[C@H](CS(=O)(=O)C(C)(C)C)C(C)C)C1CCCCC1)C2(C)C (stereo partly drawn) [Compound 157] | < 75 |
| CC(C)[C@@H](CS(=O)(=O)Cc1ccccc1)NC(=O)N[C@H](C(=O)N1C[C@H]2[C@@H]([C@H]1C(=O)NC(CC1CCC1)C(=O)C(N)=O)C2(C)C)C1CCCCC1 (stereo partly drawn) [Compound 158] | < 75 |
| CC(C)[C@@H](CS(=O)(=O)Cc1ccccc1)NC(=O)N[C@H](C(=O)N1C[C@H]2[C@@H]([C@H]1C(=O)NC(CC1CC1)C(=O)C(N)=O)C2(C)C)C1CCCCC1 (stereo partly drawn) [Compound 159] | < 75 |
| CC(C)(CS(=O)(=O)c1ccccc1)NC(=O)N[C@H](C(=O)N1C[C@H]2[C@@H]([C@H]1C(=O)NC(CC1CC1)C(=O)C(N)=O)C2(C)C)C(C)(C)C (stereo partly drawn) [Compound 160] | < 75 |
| CC(C)(C)[C@H](NC(=O)NC1(CS(C)(=O)=O)CCCCC1)C(=O)N1C[C@H]2[C@@H]([C@H]1C(=O)NC(CC1CC1)C(=O)C(N)=O)C2(C)C (stereo partly drawn) [Compound 161] | < 75 |
| CC(C)(C)[C@H](NC(=O)NC1(CS(=O)(=O)c2ccccc2)CC1)C(=O)N1C[C@H]2[C@@H]([C@H]1C(=O)NC(CC1CC1)C(=O)C(N)=O)C2(C)C (stereo partly drawn) [Compound 162] | < 75 |
| CC(C)[C@@H](CS(=O)(=O)c1ccccc1)NC(=O)N[C@H](C(=O)N1C[C@H]2[C@@H]([C@H]1C(=O)NC(CC1CCC1)C(=O)C(N)=O)C2(C)C)C1CCCCC1 (stereo partly drawn) [Compound 163] | < 75 |
| CC(C)[C@@H](CS(=O)(=O)c1ccccc1)NC(=O)N[C@H](C(=O)N1C[C@H]2[C@@H]([C@H]1C(=O)NC(CC1CC1)C(=O)C(N)=O)C2(C)C)C1CCCCC1 (stereo partly drawn) [Compound 164] | < 75 |
| CC(C)[C@@H](CS(=O)(=O)C(C)(C)C)NC(=O)N[C@H](C(=O)N1C[C@H]2[C@@H]([C@H]1C(=O)NC(CC1CCC1)C(=O)C(N)=O)C2(C)C)C(C)(C)C (stereo partly drawn) [Compound 165] | < 75 |
| C#CCCC(NC(=O)[C@@H]1[C@@H]2[C@H](CN1C(=O)[C@@H](NC(=O)NC1(CS(=O)(=O)c3ccccc3)CC1)C(C)(C)C)C2(C)C)C(=O)C(=O)NCC=C (stereo partly drawn) [Compound 166] | 75 to 250 |
| CC(C)(C)[C@H](NC(=O)N[C@H](CS(=O)(=O)c1ccccc1)C(C)(C)C)C(=O)N1C[C@H]2[C@@H]([C@H]1C(=O)NC(CC1CCC1)C(=O)C(N)=O)C2(C)C (stereo partly drawn) [Compound 167] | < 75 |
| CC(C)(C)[C@H](NC(=O)N[C@H](CS(=O)(=O)c1ccccc1)C(C)(C)C)C(=O)N1C[C@H]2[C@@H]([C@H]1C(=O)NC(CC1CC1)C(=O)C(N)=O)C2(C)C (stereo partly drawn) [Compound 168] | < 75 |
| CC(C)(C)[C@H](NC(=O)N[C@H](CS(=O)(=O)Cc1ccccc1)C(C)(C)C)C(=O)N1C[C@H]2[C@@H]([C@H]1C(=O)NC(CC1CC1)C(=O)C(N)=O)C2(C)C (stereo partly drawn) [Compound 169] | < 75 |
| CC(C)(C)[C@H](NC(=O)N[C@H](CS(=O)(=O)Cc1ccccc1)C(C)(C)C)C(=O)N1C[C@H]2[C@@H]([C@H]1C(=O)NC(CC1CCC1)C(=O)C(N)=O)C2(C)C (stereo partly drawn) [Compound 170] | < 75 |
| CC(C)(C)[C@H](NC(=O)NC1(CS(=O)(=O)c2ccccc2)CCCC1)C(=O)N1C[C@H]2[C@@H]([C@H]1C(=O)NC(CC1CC1)C(=O)C(N)=O)C2(C)C (stereo partly drawn) [Compound 171] | < 75 |

Same assay, conditions: Table 3, sulfoxide compounds; HCV serine protease; read-out: Ki* range

| SMILES | Ki [nM] |
| --- | --- |
| C=CCNC(=O)C(=O)C(CCC(F)(F)F)NC(=O)[C@@H]1[C@@H]2[C@H](CN1C(=O)[C@@H](NC(=O)NC1(C[S+]([O-])c3ccccn3)CCCCC1)C(C)(C)C)C2(C)C (stereo partly drawn) [Compound 138] | 75 to 250 |
